# PubChem BioAssay AID1745853 (National Center for Advancing Translational Sciences (NCATS), 2022)
# Several values for one entry are separate records, joined by “and”; a condition that tells them apart may be missing. Equal entries are not always repeated. Some of the results follow. These are further read-outs of the screen, such as a control signal, another cell line or another target. No call is given for them.
# Legend:
# Assay in all cases: Primary Screen for Target Class Profiling of Small Molecule Inhibitors of Methyltransferases
# [1] = target: Glycine N-methyltransferase (Homo sapiens) (UniProt Q14749); conditions: purified enzyme, MTase-Glo SAH luminescence; measured here: GNMT inhibition; at 40 µM; stronger effect = lower value
# Method in brief: (§1)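 Each enzyme was reacted with SAM and its substrate, with compounds tested once at 40 uM; SAH formed was read by MTase-Glo luminescence.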
# [2] = target: Guanidinoacetate N-methyltransferase (Homo sapiens) (UniProt Q14353); conditions: purified enzyme, MTase-Glo SAH luminescence; measured here: GAMT inhibition; at 40 µM; stronger effect = lower value
# Method in brief: as §1
# [3] = target: Histamine N-methyltransferase (Homo sapiens) (UniProt P50135); conditions: purified enzyme, MTase-Glo SAH luminescence; measured here: HNMT inhibition; at 40 µM; stronger effect = lower value
# Method in brief: as §1
# [4] = target: Nicotinamide N-methyltransferase (Homo sapiens) (UniProt P40261); conditions: purified enzyme, MTase-Glo SAH luminescence; measured here: NNMT inhibition; at 40 µM; stronger effect = lower value
# Method in brief: as §1
# [5] = target: Phenylethanolamine N-methyltransferase (Homo sapiens) (UniProt P11086); conditions: purified enzyme, MTase-Glo SAH luminescence; measured here: PNMT inhibition; at 40 µM; stronger effect = lower value
# Method in brief: as §1
# % is scaled to controls: 0 for no effect and ±100 for the full control effect.
SMILES,"activity change, negative = inhibition [1]","activity change, negative = inhibition [2]","activity change, negative = inhibition [3]","activity change, negative = inhibition [4]","activity change, negative = inhibition [5]"
C[C@]12CC[C@H](O)C[C@@H]1CC[C@@H]1[C@@H]2CC[C@]2(C)[C@@H](C3=CC(=O)OC3)CC[C@]12O,1.33%,3.21%,9.87%,-11.3%,-2.69%
Cc1cccc(C2c3cccn3-c3ccccc3CN2C(=O)Nc2ccccc2C)c1 (stereo not given),3.02%,0.285%,-2.56%,-5.41%,0.512%
CC(C)NC(=O)N1Cc2ccccc2-n2cccc2C1c1ccccc1Cl (stereo not given),0.83%,0.989%,1.11%,-4.94%,-1.63%
CCc1cnc(N2CCC3(CC2)C(=O)Nc2cc(OCC4CC4)c(OC)cc23)nc1,-7.8%,-3.69%,-4%,-11.9%,-5.74%
CN1CCC2=C(C1)c1ccccc1Cc1ccccc12,-0.115%,10.3%,-3.91%,-17.7%,4.54%
COc1cc2c(cc1OCC1CCCC1)N([S+](=O)([O-])c1ccc(Oc3ccccc3)cc1)CC21CCN(CC(=O)O)CC1,-8.02%,-9.77%,-4.87%,-5.52%,-6.88%
C#CC1(O)CCC2C3CCC4=CC(=O)CCC4=C3C=CC21C (stereo not given),-7.81%,0.017%,3.69%,-12.3%,-0.758%
COc1ccccc1NC(=O)N1Cc2ccccc2-n2cccc2C1c1cccc(C)c1 (stereo not given),4.88%,3.75%,-2.6%,-1.56%,2.15%
C[C@]12CC[C@@H](O)C[C@@H]1CC[C@@H]1[C@@H]2CC[C@]2(C)C(=O)[C@@H](Br)C[C@@H]12,-2.94%,1.8%,-4.53%,-14.7%,-7.29%
O=C(Nc1ccccc1Br)N1Cc2ccccc2-n2cccc2C1c1cccs1 (stereo not given),9.18%,3.63%,5.34%,1.45%,9.77%
O=C(O)C1=NOC2CN(CC3CCCCC3)CC12 (stereo not given),2.26%,-3.32%,2.32%,1.64%,2.82%
C[C@H](N)Cc1cccc(C(F)(F)F)c1,4.43%,8.22%,2.9%,-3.56%,-18.5%
COc1ccc(OC)c(NC(=O)N2Cc3ccccc3-n3cccc3C2c2ccc(C)cc2)c1 (stereo not given),8.2%,0%,8.46%,7.22%,4.18%
COc1ccc(OC)c(NC(=O)N2Cc3ccccc3-n3cccc3C2C)c1 (stereo not given),8.41%,3.76%,2.04%,-1.76%,7.43%
CCOCCCNC(=O)N1Cc2ccccc2-n2cccc2C1c1cccs1 (stereo not given),12%,7.08%,-3.28%,-12.9%,-1.77%
CN1CCCC1CCOC(c1cc2nccc(C(=O)O)c2[nH]1)c1ccccc1Cl (stereo not given),2.36%,6.3%,3.27%,-8.71%,1.33%
COc1cc2c(c(OC)c1OC)-c1ccc(SC)c(=O)cc1[C@@H](NC(C)=O)CC2,-0.287%,-3.14%,6.94%,-12.6%,-0.365%
CC(NC(C)(C)C)C(=O)c1cccc(Cl)c1 (stereo not given),-2.27% and 11.1%,4.13% and 14.4%,8.79% and 11.6%,-14.5% and -5.15%,0.966% and 1.35%
COc1cc(OC)c(NC(=O)N2Cc3ccccc3-n3cccc3C2C)cc1Cl (stereo not given),6.5%,2.14%,-3.33%,-4.41%,0.601%
COc1ccc(C2c3cccn3-c3ccccc3CN2C(=O)Nc2cc(Cl)ccc2OC)cc1 (stereo not given),13.1%,3.88%,2.9%,7.87%,10.7%

SMILES,"activity change, negative = inhibition [1]","activity change, negative = inhibition [2]","activity change, negative = inhibition [3]","activity change, negative = inhibition [4]","activity change, negative = inhibition [5]"
CN1CCc2cc(O)cc3c2[C@H]1Cc1ccc(O)c(O)c1-3,-91.9%,2.76%,-8.33%,-6.84%,-0.873%
COc1ccc(NC(=O)N2Cc3ccccc3-n3cccc3C2c2ccc(SC)cc2)c(OC)c1 (stereo not given),0.899%,0%,7.55%,2.25%,6.68%
CCOC(=O)c1cccc(NC(=O)N2Cc3ccccc3-n3cccc3C2C)c1 (stereo not given),9.65%,4.41%,3.38%,-2.1%,7.78%
Cc1cc(NC(=O)N2Cc3ccccc3-n3cccc3C2c2cccs2)ccc1Br (stereo not given),3.18%,2.54%,-4.46%,-4.7%,1.21%
CCOc1ccccc1NC(=O)N1Cc2ccccc2-n2cccc2C1c1ccc(SC)cc1 (stereo not given),1.32%,4.3%,-0.808%,-0.565%,5.13%
CCc1ccc(NC(=O)N2Cc3ccccc3-n3cccc3C2c2ccc(SC)cc2)cc1 (stereo not given),-1.29%,0%,-1.15%,0.715%,3.06%
C[C@@H]1Cc2c(Cl)cc(C(=O)N[C@@H](Cc3ccccc3)C(=O)O)c(O)c2C(=O)O1,-0.612%,0.029%,2.83%,-13.8%,1.14%
CC(=O)O[C@H]1C[C@]2(O)[C@@H]3CC[C@@H]4C[C@@H](O)CC[C@]4(C)[C@H]3CC[C@]2(C)[C@H]1c1ccc(=O)oc1,1.17%,5.3%,2.48%,-10.1%,-1.89%
NC(CP(=O)(O)O)C(=O)O (stereo not given),-2.4%,6.08%,-0.274%,-1.55%,10%
COc1ccc(C2c3cccn3-c3ccccc3CN2C(=O)Nc2ccccc2Cl)cc1OC (stereo not given),8.2%,0.466%,2.43%,2.38%,6.24%
Cn1c(CCCC(=O)O)nc2cc(N(CCCl)CCCl)ccc21,-14.6%,1.06%,-2.13%,-8.18%,1.16%
O=C(Nc1ccc2c(c1)OCCO2)N1Cc2ccccc2-n2cccc2C1c1ccc(Cl)cc1 (stereo not given),2.39%,0%,2.83%,5.37%,6.74%
Nc1ncnc2c1ncn2[C@@H]1O[C@@H]2COP(O)(=S)O[C@H]2[C@H]1O (stereo not given in full),4.59%,7.74%,12.9%,-3.1%,7.34%
CCCNC(=O)N1Cc2ccccc2-n2cccc2C1c1cccc(C)c1 (stereo not given),6.47%,0%,1.38%,-1.1%,6.43%
COc1cc(C(=O)O[C@H]2[C@@H]3C=CO[C@@H](O[C@@H]4O[C@H](CO)[C@@H](O)[C@H](O)[C@H]4O)[C@@H]3[C@@]3(CO)O[C@@H]23)ccc1O,-1.02%,-5.85%,-2.57%,-14.5%,-0.497%
CCOc1ccc(C2c3cccn3-c3ccccc3CN2C(=O)Nc2cccc(Cl)c2C)cc1 (stereo not given),-3.02%,-3.83%,4.44%,0.933%,1.67%
O=C(N[C@@H](COc1ccc2[nH]c(=O)[nH]c2c1)c1ccccc1)c1cccn(Cc2ccc(F)c(F)c2)c1=O,-0.437%,-1.34%,8.54%,-37.8%,-7.47%
CC1c2cccn2-c2ccccc2CN1C(=O)NCc1ccc(F)cc1 (stereo not given),2.46%,4.99%,-6.89%,-14.6%,3.03%
CS(=O)(=O)N1C[C@H]2CCN(Cc3ccc[nH]3)C[C@H]21,-17.3%,-13%,-4.85%,-18.3%,-28.1%
